Among all 150,000 compounds or so, about 540 (0.36%) showed an effect of 50% or more. Some of the results follow.

We go through 44 compounds from ChEMBL document CHEMBL4888484, “Replenishing the malaria drug discovery pipeline: Screening and hit evaluation of the MMV Hit Generation Library 1 (HGL1) against asexual blood stage Plasmodium falciparum ,using a nano luciferase reporter read-out” (2022).

For this assay, the system named is Plasmodium falciparum. Nature of the assay: Primary screen in NF54 nanoGlo assay, in single point, at 2uM, 72h; a lower Z score goes with more inhibition. It is filed as functional, Erythrocyte. The conditions noted are these: timepoint 72 hour.
By % Inhibition is commonly meant the relative decrease from the control value, in per cent. `CCCCN(C)S(=O)(=O)N(CC)Cc1cnn(C)c1`: the “% Inhibition” value is -6% and the Z score was 0.76.
The matching figures for `CC(C)C(CNC1CCC(S(C)(=O)=O)CC1)C(C)C` (stereo not drawn): 3% and -0.44.
For `Cc1ccccc1-c1cncc(C(=O)NCc2cccnc2)c1` the same measures were -5% and 0.79.
In the case of `COC(=O)[C@H]1CCn2c(nnc2C(=O)Nc2ccc(C)c(C)c2)C1`, the “% Inhibition” value is recorded as 1% and the Z score is reported as -0.12.
The matching figures for `Cc1ccc2nc(N3CCC[C@H](C(=O)NCCCN(C)C4CCCCC4)C3)[nH]c2c1`: 6% and -1.14.
The matching figures for `O=C(Cc1ccsc1)NCc1nnc2n1CC[C@H](C(F)(F)F)C2`: -21% and 2.63.
With `C=CCCS(=O)(=O)N(CC(C)C)c1cccc(O)c1`, the “% Inhibition” value is reported as -6% and the Z score is recorded as 0.77.
In the case of `CC(C)(C)CC(=O)NCc1ccc(-c2ccco2)o1`, the “% Inhibition” value amounted to 9% and the Z score is given as -1.27.
`O=C(COc1ccccc1Br)NCc1n[nH]c(=O)[nH]1`: the “% Inhibition” value is -14% and the Z score is listed as 1.45.
For `COCCN(CCOC)CC(=O)Nc1cc(OC)cc(OC)c1` the same measures were -3% and 0.41.
In the case of `CN(C)c1ccc(C#N)c(NS(=O)(=O)c2cc(Cl)sc2Cl)c1`, the “% Inhibition” value is on record as -8% and the Z score is 1.24.
For `O=C(Cc1ccc(Cl)s1)Nc1nc2ccccc2s1` the same measures were -14% and 1.57.
The matching figures for `CC(C)(C)n1nnc(C(=O)N[C@H](CC(=O)O)c2cccc(Br)c2)n1`: -7% and 1.39.
For `COCC[C@H]1CCCCN1C(=O)Nc1ccccc1C1CC1` the same measures were -1% and 0.1.
In the case of `Cc1csc(Cn2c(=O)c(C#N)c3n(c2=O)CCC3)n1`, the “% Inhibition” value is listed as -3% and the Z score turned out to be 0.45.
On to `CCCC(=O)Nc1nc2n(n1)[C@H](c1ccc(Cl)cc1)CC(=O)N2`, for which the “% Inhibition” value was 7% and the Z score is recorded as -0.91.
For `CN1CCC(N[C@H]2CCCc3ccccc32)CC1` the same measures were -15% and 2.79.
For `Cc1onc(N)c1S(=O)(=O)N1CCOCC1` the same measures were -20% and 1.8.
`CNc1ncccc1C(=O)NC[C@](C)(O)C(F)(F)F`: the “% Inhibition” value is on record as 2% and the Z score is on record as -0.42.
For `CC[C@@]1(C(=O)NCc2ccc(C)o2)CCCCC(=O)N1` the same measures were -3% and 0.31.
The matching figures for `O=C(Nc1ccccc1-c1ccccc1)c1cc(C(=O)Nc2ccccc2-c2ccccc2)cc(N2C(=O)c3ccccc3C2=O)c1`: 4% and -0.66.
For `CCN(CC)C(=O)Cn1cc(C(=O)N(C)CCc2ccccn2)nn1` the same measures were -12% and 1.52.
Regarding `NC1CC(c2cc(N3CCCCCCCC3)ncn2)C1` (stereo not drawn), the “% Inhibition” value is recorded as -23% and the Z score amounted to 2.99.
For `O=C(C1CCC2CCCCC2C1)N1CCC(O)(C(F)F)C1` (stereo not drawn) the same measures were -12% and 1.74.
For `CCNC(=O)c1cc(NC(=O)NCC2(CCOC)CC2)c(C)s1` the same measures were 3% and -0.54.
The matching figures for `COc1ccc(Cn2nc(C)n(-c3ccc(Oc4ccccc4)cc3)c2=O)cc1`: 0% and -0.05.
As for `CC[C@H]1CC(=O)NCc2nc3cc(C)ccn3c21`, the “% Inhibition” value is recorded as -2% and the Z score amounted to 0.29.
As to `COc1cccc(CN2CC3(CCN(C(=O)c4cccn4C)CC3)CC2=O)c1`, the “% Inhibition” value is 1% and the Z score is given as -0.07.
Regarding `Cc1cccnc1N1CCN(C(=O)c2ccc(Cn3ccnc3)o2)CC1`, the “% Inhibition” value was -14% and the Z score was 2.67.
Turning to `CC(=O)NC(C)(C)C[C@H](C)N1CCC2(CCCCCC2)C1`, the “% Inhibition” value is reported as -15% and the Z score stood at 1.38.
For `CCCCNCCOCCOc1ccc(C)c(C)c1` the same measures were -11% and 1.52.
For `C[C@@H](COc1cccc(F)c1)NC(=O)c1nccn2ccnc12` the same measures were -8% and 0.73.
For the compound `O=C(O)CCC(=O)NC1=NN2C(=NC(c3ccccc3)=C[C@H]2c2ccc(F)cc2)N1`, the “% Inhibition” value was -8% and the Z score is 1.21.
The matching figures for `O=C(NC1CCN(C2CC2)CC1)C1CCCCCC1`: -4% and 0.67.
`COC(=O)C1CC2CCCCC2N1S(=O)(=O)c1c(C)noc1C` (stereo not drawn): the “% Inhibition” value was -7% and the Z score was 1.06.
In the case of `COCCN(Cc1ccsc1)Cc1cc(OC)ccn1`, the “% Inhibition” value was -8% and the Z score worked out at 0.88.
For `CCN(CC)c1ccc([C@@H](C#N)N2CCOCC2)cc1` the same measures were 5% and -0.62.
In the case of `C[C@@H](CC(=O)NCc1ccc[nH]1)N1CCCCC1=O`, the “% Inhibition” value is -9% and the Z score was determined as 1.35.
For `CC(C)Oc1cccc(C(=O)NCc2cnc3n2CCC3)c1Cl` the same measures were 2% and -0.35.
The matching figures for `CNc1snc(C)c1C(=O)N(C)CC1CCCCC1`: 1% and -0.06.
As for `Cc1noc(NC(=O)Nc2cccc(C(F)(F)F)c2)c1C`, the “% Inhibition” value is given as -15% and the Z score is 1.77.
For `O=C(O[C@@H]1CCC[C@H]1n1cccn1)c1nc(C2CC2)n2ccccc12` the same measures were -5% and 0.77.
`O=C(c1ncc(F)cc1F)N1CCC[C@H](c2nccn2CC2CC2)C1`: the “% Inhibition” value came out at 1% and the Z score is reported as -0.24.
For `CC[C@@H](CO)NCc1ccc(OC)c(Cl)c1` the same measures were 11% and -1.8.
